Viability index data for 71 compounds are collected here from the supplement of paper PMC4723716.

± gives the uncertainty stated by the source. The full ranking holds about 9,900 compounds; the median of “viability index relative to DMSO control” is about 1, and the lowest 2% start at about 0.85. This is one part of the list.

The test relates to Plasmodium falciparum NF54 stage V gametocytes. Put plainly: viability index relative to DMSO control (fraction); higher = less gametocyte killing. The note with it: 2.5 µM, library set: Broad Institute DOS, incubation time: 72 h. An outline of the steps:
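Gametocytes (P. falciparum NF54, stage V) were treated with compound at 2.5 µM for 72 hr at 37°C in low oxygen, in serum-free medium at 0.75% gametocytemia and 1.25% hematocrit. Counts of 20–70 µm2 red particles, taken from one field per well after MitoTracker Red CMXRos with saponin, were divided by the plate mean of solvent-only wells. This ratio is the viability index.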
`CN(C)CC(=O)N[C@H]1C=C[C@H](CC(=O)NCc2ccc(Cl)cc2)O[C@H]1CO` displayed a viability index of 1.11 ± 0.15.

Take `CCN(C[C@H]1N[C@H](CO)[C@@H]1c1ccccc1)C(=O)c1ccncc1`: the viability index stood at 1 ± 0.019.

Regarding `COc1ccccc1NC(=O)N1C[C@@H](O)COC[C@@H]2O[C@H](CC(=O)N3CCC(Cc4ccccc4)CC3)CC[C@H]21`, the viability index turned out to be 1.08 ± 0.054.

`COC(=O)[C@H]1[C@H](CO)[C@H]2Cn3c(ccc(/C=C/c4ccccc4)c3=O)[C@H]2N1CCC(F)(F)F` gave a viability index of 1.004 ± 0.0063.

In the case of `N#Cc1cccc(-c2ccc([C@H]3[C@@H](CO)N4CCCCN(Cc5ccccc5F)C[C@@H]34)cc2)c1`, the viability index amounted to 1.07 ± 0.067.

As for `C[C@H]1CN([C@@H](C)CO)C(=O)c2cc(NC(=O)C3CCCCC3)ccc2O[C@H]1CN(C)C(=O)Nc1ccc(C(F)(F)F)cc1`, the viability index turned out to be 1.06 ± 0.044.

The compound `COCC(=O)N1CC2(C1)[C@H](c1ccccc1)[C@H](CO)N2C(=O)NC1CCCC1` registered a viability index of 1.07 ± 0.042.

In turn, `COc1ccc2c3c([nH]c2c1)[C@@H](CO)N(C[C@]31CCN(CC1)S(=O)(=O)c1cccc(C)c1)C(=O)Nc1cccc(F)c1` displayed a viability index of 1.01 ± 0.065.

`C[C@H](CO)N1C[C@H](C)[C@@H](CN(C)Cc2ccc(-c3ccccc3)cc2)Oc2ccc(N(C)C)cc2CC1=O`: the viability index was 0.91 ± 0.16.

Regarding `N#C[C@@H]1[C@@H](c2ccc(/C=C/c3ccccc3)cc2)[C@@H](CO)N1C(=O)Cc1ccccn1`, the viability index was 1.04 ± 0.022.

In turn, `N#Cc1cccc(-c2ccc([C@H]3[C@H]4CNC[C@@H]3N4Cc3cc(F)ccc3F)cc2)c1` returned a viability index of 1.1 ± 0.029.

In the case of `N#Cc1cccc(-c2ccc3c(c2)[C@H]2[C@H](CCN2C(=O)CN2CCOCC2)[C@H](CO)N3)c1`, the viability index was found to be 1.05 ± 0.021.

`Cc1noc(C)c1S(=O)(=O)Nc1ccc2c(c1)C(=O)N([C@H](C)CO)C[C@@H](C)[C@H](CN(C)Cc1ccc(C(=O)O)cc1)OCCCC[C@@H](C)O2` yielded a viability index of 1.07 ± 0.12.

In turn, `CN1c2ccc(-c3cccc(C#N)c3)cc2[C@@H]2[C@@H](CCN2C(=O)CN2CCOCC2)[C@H]1CO` showed a viability index of 1.03 ± 0.11.

In the case of `O=C(CC(F)(F)F)N1C[C@@H]2[C@H](c3ccccc31)[C@@H](CO)N2Cc1cccnc1`, the viability index was determined as 1.02 ± 0.037.

Take `CO[C@H]1CC[C@@H]2CCN(C)C(=O)[C@H](C)CN(C)C(=O)c3cc(C#N)ccc3OC[C@H]1O2`: the viability index was determined as 0.99 ± 0.035.

Compound `NCC[C@H]1CC[C@H](NS(=O)(=O)c2ccc(Cl)cc2)[C@@H](CO)O1` displayed a viability index of 1.1 ± 0.039.

Regarding `O=C(CC1CC1)N1CC2(C1)[C@@H](c1ccccc1)[C@@H](CO)N2S(=O)(=O)Cc1ccccc1`, the viability index is 1.07 ± 0.026.

Compound `C[C@H](CO)N1C[C@H](C)[C@@H](CN(C)S(=O)(=O)c2cccc(C#N)c2)OCc2ccccc2-c2ccccc2C1=O` returned a viability index of 1.03 ± 0.032.

`O=C(C[C@@H]1CC[C@@H]2[C@H](COC[C@H](O)CN2C(=O)Nc2ccccc2)O1)NCc1ccccc1F` showed a viability index of 1.05 ± 0.13.

`O=C(CC1CC1)N1CC[C@@H]2[C@H]1c1cc(-c3ccc(F)cc3)ccc1N[C@@H]2CO` came in with a viability index of 1.046 ± 0.009.

`O=C(Nc1cc(F)ccc1F)N[C@H]1CC[C@@H](CC(=O)N2CCc3ccccc3C2)O[C@@H]1CO`: the viability index is 1.05 ± 0.05.

With `N#C[C@H]1[C@@H](c2ccc(-c3cccc(F)c3)cc2)[C@@H](CO)N1C(=O)NC1CCCC1`, the viability index stood at 0.916 ± 0.12.

Take `CCS(=O)(=O)N1[C@H](C#N)[C@H](c2ccc(C#Cc3ccccc3F)cc2)[C@@H]1CO`: the viability index came to 1.12 ± 0.053.

For `CC(C)NC(=O)Nc1cccc2c1O[C@@H](CN(C)C(=O)Nc1ccccc1)[C@@H](C)CN([C@H](C)CO)C2=O`, the viability index is 1.1 ± 0.11.

Compound `O=C(c1ccncc1)N1CC2(C1)[C@@H](c1ccccc1)[C@@H](CO)N2CC1CC1` displayed a viability index of 1.09 ± 0.021.

Compound `CS(=O)(=O)N1[C@@H]2c3ccc(-c4cccc(F)c4)c(=O)n3C[C@H]1[C@H](CO)[C@H]2C(=O)N1CCCCC1` yielded a viability index of 1.03 ± 0.02.

On to `Fc1cccc(-c2ccc([C@@H]3[C@H]4CNC[C@@H]3N4Cc3cncnc3)cc2)c1`, for which the viability index amounted to 1.09 ± 0.027.

On to `CCCNC(=O)N1[C@@H]2CN(C(=O)Nc3cccc(Cl)c3)c3ccccc3[C@@H]2[C@@H]1CO`, for which the viability index is 1.02 ± 0.1.

On to `C[C@H](CO)N1C[C@H](C)[C@H](CN(C)C(=O)NC2CCCCC2)Oc2ncc(-c3cccc(F)c3)cc2C1=O`, for which the viability index came out at 1.01 ± 0.084.

`Cc1nc(N2[C@@H](C#N)[C@H](c3ccccc3)[C@@H]2CO)sc1C` yielded a viability index of 1.05 ± 0.022.

As for `C[C@@H]1CN([C@@H](C)CO)C(=O)CCCn2nncc2CO[C@@H]1CN(C)Cc1cccc(C(F)(F)F)c1`, the viability index was 1.02 ± 0.051.

`COc1ccc2c3c([C@@H](CO)N(C[C@]33CCN(Cc4cncnc4)CC3)S(C)(=O)=O)n(C)c2c1`: the viability index was 1.09 ± 0.044.

`Cc1noc(C)c1S(=O)(=O)Nc1ccc2c(c1)CC(=O)N([C@@H](C)CO)C[C@@H](C)[C@H](CN(C)Cc1ccc(Oc3ccccc3)cc1)O2` showed a viability index of 1.05 ± 0.036.

The compound `c1cc(-c2ccc([C@H]3[C@@H]4CN(Cc5nccs5)C[C@H]3N4)cc2)ccn1` had a viability index of 1.12 ± 0.077.

In the case of `C[C@H]1CCCCO[C@@H](CN(C)C(=O)c2ccncc2)[C@@H](C)CN([C@@H](C)CO)C(=O)c2cc(NC(=O)CCC(F)(F)F)ccc2O1`, the viability index came out at 1.09 ± 0.091.

Take `CO[C@@H]1CN(C)C(=O)c2ccc(NC(=O)c3cc(C)on3)cc2OC[C@H](C)NC[C@H]1C`: the viability index was 1 ± 0.11.

`C/C=C/c1ccc([C@@H]2[C@H]3CNC[C@@H]2N3Cc2ccc3c(c2)OCO3)cc1` came in with a viability index of 0.994 ± 0.12.

Take `O=C(C[C@@H]1CC[C@H]2[C@@H](COC[C@@H](O)CN2Cc2nccs2)O1)N1CCC(Cc2ccccc2)CC1`: the viability index is 1.13 ± 0.068.

Regarding `CO[C@@H]1CN(C)C(=O)c2ccc(NS(=O)(=O)CC(F)(F)F)cc2OC[C@H](C)N(C(=O)NC(C)C)C[C@H]1C`, the viability index turned out to be 1.04 ± 0.026.

In the case of `CN1CCN(C(=O)C[C@@H]2CC[C@@H]3[C@H](COC[C@@H](O)CN3C(=O)Nc3ccc4c(c3)OCO4)O2)CC1`, the viability index amounted to 0.975 ± 0.089.

As for `CO[C@@H](CN(C)S(=O)(=O)c1ccc(C)cc1)[C@@H](C)CN(C(=O)Nc1ccccc1F)[C@H](C)CO`, the viability index is 1.04 ± 0.021.

As for `Cc1ccc(S(=O)(=O)Nc2ccc3c(c2)C(=O)N([C@@H](C)CO)C[C@H](C)[C@H](CN(C)S(=O)(=O)c2cccs2)OCCCC[C@@H](C)O3)cc1`, the viability index was 1.07 ± 0.05.

On to `C[C@@H]1CN([C@@H](C)CO)C(=O)c2cc(NC(=O)Cc3ccccc3)ccc2O[C@@H](C)CCCCO[C@@H]1CN(C)Cc1ccncc1`, for which the viability index came to 1.02 ± 0.08.

`C[C@H](CO)N1C[C@H](C)[C@H](CN(C)S(=O)(=O)c2cn(C)cn2)Oc2ncc(C3=CCCCC3)cc2C1=O` had a viability index of 0.931 ± 0.064.

As for `OC[C@H]1[C@@H](c2ccccc2)C2(CN(CCC(F)(F)F)C2)N1Cc1cncnc1`, the viability index worked out at 1.09 ± 0.026.

`COc1ccc(CN(C)C[C@@H]2OCCCC[C@@H](C)Oc3ccc(NC(=O)C4CCCCC4)cc3C(=O)N([C@@H](C)CO)C[C@@H]2C)cc1` gave a viability index of 1.11 ± 0.031.

Take `CC(C)C#Cc1ccc([C@@H]2[C@H](CO)N3C(=O)CN(C(=O)c4ccc5c(c4)OCO5)C[C@@H]23)cc1`: the viability index worked out at 1.13 ± 0.021.

`CO[C@@H](CN(C)S(=O)(=O)c1ccc(F)cc1)[C@@H](C)CN(Cc1ccccc1Cl)[C@H](C)CO`: the viability index was found to be 0.9994 ± 0.0071.

Turning to `CN1C(=O)c2cc(NC(=O)c3ccc(F)c(F)c3)ccc2OC[C@@H]2O[C@H](CC(=O)N3CCCCC3)CC[C@@H]21`, the viability index came to 1.08 ± 0.042.

Regarding `C[C@@H]1CN([C@H](C)CO)C(=O)c2cccc(NC(=O)Nc3ccc(C(F)(F)F)cc3)c2O[C@@H]1CN(C)S(=O)(=O)c1cn(C)cn1`, the viability index worked out at 0.921 ± 0.13.

Consider `COCC(=O)Nc1ccc2c(c1)OC[C@@H](C)N(C)C[C@H](C)[C@@H](OC)CN(C)C2=O`, for which the viability index came to 1.09 ± 0.069.

Turning to `CO[C@H]1CN(C)C(=O)c2cc(NS(=O)(=O)CC(F)(F)F)ccc2OC[C@@H](C)NC[C@@H]1C`, the viability index is 1.05 ± 0.016.

Consider `C[C@H]1CCCCO[C@@H](CN(C)S(=O)(=O)c2ccc(F)cc2)[C@@H](C)CN([C@@H](C)CO)C(=O)c2cc(N(C)C)ccc2O1`, for which the viability index worked out at 1.09 ± 0.079.

The compound `O=C(C[C@@H]1CC[C@H]2[C@@H](COC[C@@H](O)CN2C(=O)c2ccc3c(c2)OCO3)O1)NC1CCC1` displayed a viability index of 0.958 ± 0.19.

For `CNC[C@H]1OCCCC[C@H](C)Oc2ccc(NC(=O)Nc3ccc(OC)cc3)cc2C(=O)N([C@@H](C)CO)C[C@@H]1C`, the viability index stood at 1.05 ± 0.087.

`CO[C@H](CN(C)S(=O)(=O)c1cccc(Cl)c1)[C@H](C)CN(C(=O)Nc1ccccc1F)[C@H](C)CO` registered a viability index of 1.01 ± 0.012.

In the case of `CC(=O)N1[C@@H]2CN(S(=O)(=O)c3ccccc3C)c3ccccc3[C@@H]2[C@@H]1CO`, the viability index is 1.07 ± 0.072.

For `O=C(C[C@H]1CC[C@@H]2NC[C@H](O)COC[C@H]2O1)NCc1ccc2c(c1)OCO2`, the viability index came to 1.04 ± 0.044.

`CO[C@H]1CN(C)C(=O)c2ccc(NC(=O)Nc3ccccc3F)cc2OC[C@@H](C)N(CC2CC2)C[C@H]1C`: the viability index was 1.11 ± 0.021.

`CCCNC(=O)N1CC(=O)N2[C@H](C1)[C@@H](c1ccc(C#CCC3CCCC3)cc1)[C@@H]2CO` showed a viability index of 1.11 ± 0.12.

`CCCNC(=O)Nc1ccc2c(c1)OC[C@@H](C)N(S(C)(=O)=O)C[C@H](C)[C@H](OC)CN(C)C2=O` registered a viability index of 0.998 ± 0.015.

`CN1CCN(C(=O)C[C@@H]2CC[C@@H]3[C@H](COC[C@H](O)CN3Cc3cccc(-c4ccncc4)c3)O2)CC1` came in with a viability index of 1.1 ± 0.027.

As for `COCC(=O)N1CC2(C1)[C@H](c1ccc(-c3ccc(C)cc3)cc1)[C@H](CO)N2C(C)=O`, the viability index was found to be 1.15 ± 0.0016.

The compound `CN1C[C@H]2[C@@H](c3ccccc31)[C@@H](CO)N2S(=O)(=O)c1ccccc1` yielded a viability index of 1.025 ± 0.0018.

For `C[C@@H]1CN([C@H](C)CO)C(=O)CCCn2nncc2CO[C@H]1CN(C)Cc1ccc2cccnc2c1`, the viability index is 0.985 ± 0.022.

In turn, `CN1C(=O)c2cc(NC(=O)Nc3ccccc3Cl)ccc2OC[C@H]2O[C@@H](CC(=O)NCCCN3CCOCC3)CC[C@@H]21` returned a viability index of 1.02 ± 0.074.

For the compound `C[C@H]1CC(=O)NCC/C=C\C[C@H](c2ccc3c(c2)OCO3)NC1=O`, the viability index is 0.956 ± 0.024.

In turn, `CN(C)C(=O)c1cccc(-c2ccc([C@@H]3[C@@H]4CN(C(=O)Cc5ccccc5)C[C@H]3N4)cc2)c1` returned a viability index of 1.13 ± 0.053.

`CO[C@@H](CN(C)Cc1ccc2c(c1)OCO2)[C@H](C)CN(C(=O)c1ccccc1)[C@H](C)CO` came in with a viability index of 1.03 ± 0.083.

`CCCC#Cc1ccc2c(c1)[C@H]1[C@H](CCN1Cc1ccccc1F)[C@@H](CO)N2` yielded a viability index of 1.08 ± 0.019.
